# From the supplement of paper PMC8728848
# The other results are listed elsewhere or left out.
# Legend:
# Experiment in all cases: glycan array binding signal (z-score within array); higher = stronger binding
# Conditions in all cases: glycan notation: IUPAC condensed, linker removed
# [1] = target: Gal(b1-3)GlcNAc(b1-6)[Gal(b1-3)]GalNAc
# Procedure, shortened: (§1)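 Columns mapping to the same glycan were averaged after glycan names were converted to IUPAC-condensed notation. The data come from 3228 arrays in the Consortium for Functional Glycomics database, limited to those with an available protein sequence. Binding is reported as a within-array Z-score averaged across arrays of one protein sequence and across linkers.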
# Gal(b1-3)GlcNAc6S = target: Gal(b1-3)GlcNAc6S
# Procedure, shortened: as §1
# [2] = target: Gal(b1-3)[Fuc(a1-4)]GlcNAc
# Procedure, shortened: as §1
# [3] = target: Gal(b1-3)[Fuc(a1-4)]GlcNAc(b1-2)Man
# Procedure, shortened: as §1
# [4] = target: Gal(b1-3)[Fuc(a1-4)]GlcNAc(b1-2)Man(a1-3)[Gal(b1-3)[Fuc(a1-4)]GlcNAc(b1-2)Man(a1-6)]Man(b1-4)GlcNAc(b1-4)[Fuc(a1-6)]GlcNAc
# Procedure, shortened: as §1
# [5] = target: Gal(b1-3)[Fuc(a1-4)]GlcNAc(b1-3)Gal(b1-3)[Fuc(a1-4)]GlcNAc
# Procedure, shortened: as §1
# [6] = target: Gal(b1-3)[Fuc(a1-4)]GlcNAc(b1-3)Gal(b1-4)[Fuc(a1-3)]GlcNAc
# Procedure, shortened: as §1
# [7] = target: Gal(b1-3)[Fuc(a1-4)]GlcNAc(b1-6)GalNAc
# Procedure, shortened: as §1
# [8] = target: Gal(b1-3)[GlcNAc(b1-6)]GalNAc
# Procedure, shortened: as §1
# [9] = target: Gal(b1-3)[Neu5Ac(a2-6)]GalNAc
# Procedure, shortened: as §1
# [10] = target: Gal(b1-3)[Neu5Ac(a2-6)]GlcNAc(b1-4)Gal(b1-4)Glc
# Procedure, shortened: as §1
# [11] = target: Gal(b1-3)[Neu5Ac(b2-6)]GalNAc
# Procedure, shortened: as §1
# Gal(b1-4)Gal = target: Gal(b1-4)Gal
# Procedure, shortened: as §1
# [12] = target: Gal(b1-4)GalNAc(a1-3)[Fuc(a1-2)]Gal(b1-4)GlcNAc
# Procedure, shortened: as §1
# [13] = target: Gal(b1-4)GalNAc(b1-3)[Fuc(a1-2)]Gal(b1-4)GlcNAc
# Procedure, shortened: as §1
# Gal(b1-4)Glc = target: Gal(b1-4)Glc
# Procedure, shortened: as §1
# Gal(b1-4)Glc6S = target: Gal(b1-4)Glc6S
# Procedure, shortened: as §1
# Gal(b1-4)GlcNAc = target: Gal(b1-4)GlcNAc
# Procedure, shortened: as §1
# [14] = target: Gal(b1-4)GlcNAc(a1-6)Gal(b1-4)GlcNAc
# Procedure, shortened: as §1
# Gal(b1-4)GlcNAc(b1-2)Man = target: Gal(b1-4)GlcNAc(b1-2)Man
# Procedure, shortened: as §1
# [15] = target: Gal(b1-4)GlcNAc(b1-2)Man(a1-3)Man(b1-4)GlcNAc(b1-4)GlcNAc
# Procedure, shortened: as §1
# [16] = target: Gal(b1-4)GlcNAc(b1-2)Man(a1-3)[Gal(b1-4)GlcNAc(b1-2)Man(a1-6)]Man(b1-4)GlcNAc(b1-4)GlcNAc
# Procedure, shortened: as §1
# [17] = target: Gal(b1-4)GlcNAc(b1-2)Man(a1-3)[Gal(b1-4)GlcNAc(b1-2)Man(a1-6)]Man(b1-4)GlcNAc(b1-4)[Fuc(a1-6)]GlcNAc
# Procedure, shortened: as §1
# [18] = target: Gal(b1-4)GlcNAc(b1-2)Man(a1-3)[Gal(b1-4)GlcNAc(b1-2)Man(a1-6)][Gal(b1-4)GlcNAc(b1-4)]Man(b1-4)GlcNAc(b1-4)[Fuc(a1-6)]GlcNAc
# Procedure, shortened: as §1
# [19] = target: Gal(b1-4)GlcNAc(b1-2)Man(a1-3)[Gal(b1-4)GlcNAc(b1-2)Man(a1-6)][GlcNAc(b1-4)]Man(b1-4)GlcNAc(b1-4)[Fuc(a1-6)]GlcNAc
# Procedure, shortened: as §1
# [20] = target: Gal(b1-4)GlcNAc(b1-2)Man(a1-3)[GlcNAc(b1-2)Man(a1-6)]Man(b1-4)GlcNAc(b1-4)GlcNAc
# Procedure, shortened: as §1
# [21] = target: Gal(b1-4)GlcNAc(b1-2)Man(a1-3)[GlcNAc(b1-4)][Gal(b1-4)GlcNAc(b1-2)Man(a1-6)]Man(b1-4)GlcNAc(b1-4)GlcNAc
# Procedure, shortened: as §1
# [22] = target: Gal(b1-4)GlcNAc(b1-2)Man(a1-3)[Man(a1-6)]Man(b1-4)GlcNAc(b1-4)GlcNAc
# Procedure, shortened: as §1
# [23] = target: Gal(b1-4)GlcNAc(b1-2)Man(a1-6)Man(b1-4)GlcNAc(b1-4)GlcNAc
# Procedure, shortened: as §1
# [24] = target: Gal(b1-4)GlcNAc(b1-2)Man(a1-6)[GlcNAc(b1-2)Man(a1-3)]Man(b1-4)GlcNAc(b1-4)GlcNAc
# Procedure, shortened: as §1
# [25] = target: Gal(b1-4)GlcNAc(b1-2)Man(a1-6)[Man(a1-3)]Man(b1-4)GlcNAc(b1-4)GlcNAc
# Procedure, shortened: as §1
# [26] = target: Gal(b1-4)GlcNAc(b1-2)[Gal(b1-4)GlcNAc(b1-4)]Man(a1-3)[Gal(b1-4)GlcNAc(b1-2)Man(a1-6)]Man(b1-4)GlcNAc(b1-4)GlcNAc
# Procedure, shortened: as §1
# [27] = target: Gal(b1-4)GlcNAc(b1-2)[Gal(b1-4)GlcNAc(b1-4)]Man(a1-3)[Gal(b1-4)GlcNAc(b1-2)[Gal(b1-4)GlcNAc(b1-6)]Man(a1-6)]Man(b1-4)GlcNAc(b1-4)GlcNAc
# Procedure, shortened: as §1
# [28] = target: Gal(b1-4)GlcNAc(b1-2)[Gal(b1-4)GlcNAc(b1-4)]Man(a1-3)[GlcNAc(b1-4)][Gal(b1-4)GlcNAc(b1-2)Man(a1-6)]Man(b1-4)GlcNAc(b1-4)GlcNAc
# Procedure, shortened: as §1
# [29] = target: Gal(b1-4)GlcNAc(b1-2)[Gal(b1-4)GlcNAc(b1-4)]Man(a1-3)[GlcNAc(b1-4)][Gal(b1-4)GlcNAc(b1-2)[Gal(b1-4)GlcNAc(b1-6)]Man(a1-6)]Man(b1-4)GlcNAc(b1-4)GlcNAc
# Procedure, shortened: as §1
# [30] = target: Gal(b1-4)GlcNAc(b1-2)[Gal(b1-4)GlcNAc(b1-6)]Man(a1-6)[Gal(b1-4)GlcNAc(b1-2)Man(a1-3)]Man(b1-4)GlcNAc(b1-4)GlcNAc
# Procedure, shortened: as §1
# [31] = target: Gal(b1-4)GlcNAc(b1-2)[Gal(b1-4)GlcNAc(b1-6)]Man(a1-6)[Gal(b1-4)GlcNAc(b1-2)Man(a1-3)]Man(b1-4)GlcNAc(b1-4)[Fuc(a1-6)]GlcNAc
# Procedure, shortened: as §1
# [32] = target: Gal(b1-4)GlcNAc(b1-2)[Gal(b1-4)GlcNAc(b1-6)]Man(a1-6)[GlcNAc(b1-4)][Gal(b1-4)GlcNAc(b1-2)Man(a1-3)]Man(b1-4)GlcNAc(b1-4)GlcNAc
# Procedure, shortened: as §1
# [33] = target: Gal(b1-4)GlcNAc(b1-2)[Gal(b1-4)GlcNAc(b1-6)]Man(a1-6)[GlcNAc(b1-4)][Gal(b1-4)GlcNAc(b1-2)[Gal(b1-4)GlcNAc(b1-4)]Man(a1-3)]Man(b1-4)GlcNAc(b1-4)[Fuc(a1-6)]GlcNAc
# Procedure, shortened: as §1
# [34] = target: Gal(b1-4)GlcNAc(b1-3)Gal(b1-3)GalNAc
# Procedure, shortened: as §1
# [35] = target: Gal(b1-4)GlcNAc(b1-3)Gal(b1-3)GlcNAc
# Procedure, shortened: as §1
# [36] = target: Gal(b1-4)GlcNAc(b1-3)Gal(b1-4)Glc
# Procedure, shortened: as §1
# [37] = target: Gal(b1-4)GlcNAc(b1-3)Gal(b1-4)GlcNAc
# Procedure, shortened: as §1
# [38] = target: Gal(b1-4)GlcNAc(b1-3)Gal(b1-4)GlcNAc(b1-2)Man(a1-3)[Gal(b1-4)GlcNAc(b1-3)Gal(b1-4)GlcNAc(b1-2)Man(a1-6)]Man(b1-4)GlcNAc(b1-4)GlcNAc
# Procedure, shortened: as §1
# [39] = target: Gal(b1-4)GlcNAc(b1-3)Gal(b1-4)GlcNAc(b1-2)Man(a1-3)[Gal(b1-4)GlcNAc(b1-3)Gal(b1-4)GlcNAc(b1-2)Man(a1-6)]Man(b1-4)GlcNAc(b1-4)[Fuc(a1-6)]GlcNAc
# Procedure, shortened: as §1
binder,measurement,setting,value
Mermaid3 (Stilbonema majum) (protein) MGSSHHHHHHSSGLVPRGSHMAASGWLRSPQGTVVKLYRRSLSWSKADEFCKDVDGRLVVDRTADMHLFLIKNVLKEKKSRVWVGLRRTASHSRTWIWSDGTRQNEGDLDANLWLRDEPNDAAGEEECALFMYSPWEKAWGLNDYLCRGGCRNYQFICEKWIR,glycan array binding signal (z-score),[1],0.038
same,glycan array binding signal (z-score),Gal(b1-3)GlcNAc6S,-0.646
same,glycan array binding signal (z-score),[2],-0.265
same,glycan array binding signal (z-score),[3],0.676
same,glycan array binding signal (z-score),[4],0.655
same,glycan array binding signal (z-score),[5],-0.634
same,glycan array binding signal (z-score),[6],-0.384
same,glycan array binding signal (z-score),[7],-0.266
same,glycan array binding signal (z-score),[8],-0.523
same,glycan array binding signal (z-score),[9],-0.57
same,glycan array binding signal (z-score),[10],-0.544
same,glycan array binding signal (z-score),[11],-0.753
same,glycan array binding signal (z-score),Gal(b1-4)Gal,6.72
same,glycan array binding signal (z-score),[12],-0.207
same,glycan array binding signal (z-score),[13],0.176
same,glycan array binding signal (z-score),Gal(b1-4)Glc,-0.176
same,glycan array binding signal (z-score),Gal(b1-4)Glc6S,-0.269
same,glycan array binding signal (z-score),Gal(b1-4)GlcNAc,-0.633
same,glycan array binding signal (z-score),[14],-0.542
same,glycan array binding signal (z-score),Gal(b1-4)GlcNAc(b1-2)Man,0.091
same,glycan array binding signal (z-score),[15],-0.771
same,glycan array binding signal (z-score),[16],-0.555
same,glycan array binding signal (z-score),[17],0.34
same,glycan array binding signal (z-score),[18],-0.507
same,glycan array binding signal (z-score),[19],-0.671
same,glycan array binding signal (z-score),[20],-0.676
same,glycan array binding signal (z-score),[21],-0.656
same,glycan array binding signal (z-score),[22],3.26
same,glycan array binding signal (z-score),[23],-0.602
same,glycan array binding signal (z-score),[24],-0.554
same,glycan array binding signal (z-score),[25],-0.553
same,glycan array binding signal (z-score),[26],0.021
same,glycan array binding signal (z-score),[27],-0.626
same,glycan array binding signal (z-score),[28],-0.574
same,glycan array binding signal (z-score),[29],-0.699
same,glycan array binding signal (z-score),[30],-0.312
same,glycan array binding signal (z-score),[31],-0.123
same,glycan array binding signal (z-score),[32],0.3
same,glycan array binding signal (z-score),[33],-0.562
same,glycan array binding signal (z-score),[34],-0.579
same,glycan array binding signal (z-score),[35],-0.723
same,glycan array binding signal (z-score),[36],0.34
same,glycan array binding signal (z-score),[37],-0.211
same,glycan array binding signal (z-score),[38],-0.436
same,glycan array binding signal (z-score),[39],-0.061
